Assay results published in PubChem BioAssay AID881 (National Center for Advancing Translational Sciences (NCATS), 2007).
Hit rate of the full screen: of about 110,000 compounds, about 610 (0.55%) were called active. Inconclusive means that the source gave no clear call. Such entries were picked first, then a sample of the others. Calls follow the shape of the dose curve; as a rule, active = well fitted inhibition curve with a large enough effect; inconclusive = small, poorly fitted or top-dose-only effect; inactive = no such curve, though single readings can be large or run the other way. A potency beside an inconclusive call is a rough fit, not a confirmed value.

molecular target: Polyunsaturated fatty acid lipoxygenase ALOX15B (Homo sapiens) (UniProt O15296); test: qHTS Assay for Inhibitors of 15-hLO-2 (15-human lipoxygenase 2); details: purified 15hLO-2, xylenol orange hydroperoxide absorbance; activity change, negative = inhibition: at 57.1 µM (top of the series) unless noted; also: nearly all actives have a fitted effect of over 60% in size
In short: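 Screening format was qHTS against 50 nM purified 15hLO-2 in Hepes pH 7.5 with detergent. Activity follows hydroperoxide formation from 45 uM arachidonic acid, measured as 573:405 nm absorbance ratio of the ferric-xylenol orange complex.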
% is scaled to controls: 0 for no effect and ±100 for the full control effect; potency is read from the fitted curve at half-maximal effect; tags tell the direction and shape of the fitted curve.

Sequence of UniProt O15296 (O15296 whole entry, looked up): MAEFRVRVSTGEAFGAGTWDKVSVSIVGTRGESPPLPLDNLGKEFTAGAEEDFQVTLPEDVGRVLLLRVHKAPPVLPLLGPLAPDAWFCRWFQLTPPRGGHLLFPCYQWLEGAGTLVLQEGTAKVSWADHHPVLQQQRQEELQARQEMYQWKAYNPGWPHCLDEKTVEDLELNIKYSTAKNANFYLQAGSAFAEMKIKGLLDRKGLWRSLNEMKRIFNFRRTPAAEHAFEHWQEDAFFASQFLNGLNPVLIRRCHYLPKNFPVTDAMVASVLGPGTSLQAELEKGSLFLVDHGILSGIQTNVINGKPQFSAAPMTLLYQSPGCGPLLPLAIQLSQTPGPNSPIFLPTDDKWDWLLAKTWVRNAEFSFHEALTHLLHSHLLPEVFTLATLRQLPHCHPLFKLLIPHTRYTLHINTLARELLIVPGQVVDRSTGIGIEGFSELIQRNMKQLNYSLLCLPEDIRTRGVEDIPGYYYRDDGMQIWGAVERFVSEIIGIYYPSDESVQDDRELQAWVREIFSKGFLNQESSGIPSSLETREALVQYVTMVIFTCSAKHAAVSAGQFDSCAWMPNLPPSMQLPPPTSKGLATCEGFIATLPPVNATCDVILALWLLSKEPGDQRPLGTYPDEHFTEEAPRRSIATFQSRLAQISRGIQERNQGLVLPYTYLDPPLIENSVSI

Row | SMILES | Potency | activity change, negative = inhibition
1 | CCOC(=O)c1c(-c2ccc(OC)cc2)csc1NC(=O)CCN1C(=O)c2ccccc2C1=O | inconclusive: 6.31 µM [inhibitor, partial curve] | 
2 | CC(C)OC(=O)c1c(NC(=O)c2ccco2)sc2c1CCCCC2 | inconclusive: 39.8 µM [inhibitor, single point] | 
3 | CCOC(=O)c1cc(C)[nH]c(=S)c1C#N | active: 25.1 µM | 
4 | CNc1cc(-c2ccccc2C)ncn1 | inconclusive: 31.6 µM [inhibitor, single point] | 
5 | CN1/C(=C\C=Nc2ccc3ccccc3c2)C(C)(C)c2ccccc21 | inconclusive: 3.98 µM [inhibitor, single point] | 
6 | Cc1ccccc1C(=O)NC(=S)Nc1ccccc1C(F)(F)F | inconclusive: 31.6 µM [inhibitor, single point] | 
7 | N#CCCn1c(=O)c(-c2cc(F)cc(F)c2)nc2cnc(OCc3ccccc3)nc21 |  | inactive: -3.32%
8 | Cc1ccc(-c2nc3ccccc3s2)cc1NC(=O)c1ccc2c(c1)OCO2 |  | inactive: 5.04%
9 | CCn1c(-c2ccccc2O)n[nH]c1=S |  | inactive: -0.262%
10 | CC(C)(C)N1C(=O)Cc2c1nc(N)c1c(N)nc(N3CCCCC3CO)c(C#N)c21 (stereo not drawn) | active: 25.1 µM | 
11 | COCCCNC(=O)c1ccc(-n2nc(C(F)(F)F)cc2-c2cccs2)cc1 |  | inactive: -16.4%
12 | Cn1cccc1C(=O)N1CCC2(CCCN(Cc3ccc(C#N)cc3)C2)CC1 |  | inactive: 9.15%
13 | CCc1ccc(-c2cc(C(=O)NCc3ccco3)c3ccccc3n2)s1 | inconclusive: 25.1 µM [inhibitor, partial curve] | 
14 | CCCc1cc(OC)c2c(c1)OCO2 | inconclusive: 31.6 µM [inhibitor, single point] | 
15 | COc1ccc(C2CC(=O)N3CN(c4ccccc4F)CSC3=C2C#N)cc1OC (stereo not drawn) | inconclusive: 39.8 µM [inhibitor, single point] | 
16 | COc1ccc(CCC(N)=O)cc1OC |  | inactive: -9.07%
17 | Cc1ccccc1Cn1c(Cc2ccccc2)nc2ccccc21 | inconclusive: 0.251 µM [inhibitor, full curve, poor fit] | 
18 | CCSc1cnn(-c2ccccc2)c(=O)c1SCC |  | inactive: -1.09%
19 | Cc1nc2ccccc2n2c(O)c(CC(=O)O)cc12 | inconclusive: 31.6 µM [inhibitor, single point] | 
20 | COc1cc(NC(=S)NC(=O)c2ccccc2C)ccc1NC(=O)c1cccs1 | inconclusive: 12.6 µM [inhibitor, single point] | 
21 | N#C/C(=N\Nc1ccc(F)cc1)C(=N)N1CCCCC1 | inconclusive: 10 µM [inhibitor, partial curve] | 
22 | COC(=O)[C@@]1(Cc2ccc(F)cc2)[C@H]2c3cc(C(=O)N4CCCC4)n(CCc4ccc(O)c(O)c4)c3C[C@H]2CN1C(=O)c1ccccc1 | inconclusive: 12.6 µM [inhibitor, partial curve] | 
23 | CCCNC(=O)CSc1nc(-c2cccs2)cc(C(F)(F)F)n1 |  | inactive: -10.8%
24 | O=C(O)c1cc(-c2ccc(-c3ccccc3)cc2)nc2cc3ccccc3cc12 |  | inactive: -10.5% [at 11.4 µM]
25 | CC(C)(C)c1ccc(O)c(N)c1 | inconclusive: 6.31 µM [inhibitor, partial curve] | 

Row | SMILES | Potency | activity change, negative = inhibition
26 | COC(=O)c1cc(N2C(=O)C3C(C2=O)C2(C)C=CC3(C)O2)ccc1Cl (stereo not drawn) | inconclusive: 2 µM [inhibitor, partial curve] | 
27 | C=C(C)CSc1nc(N)c(C#N)c(-c2ccc(C)cc2)c1C#N | inconclusive: 12.6 µM [inhibitor, partial curve] | 
28 | Cc1nn(Cc2ccccc2)c(C)c1NC(=O)CSc1nc(-c2ccccc2)nc2c1cnn2-c1ccccc1 | inconclusive: 3.16 µM [inhibitor, full curve, poor fit] | 
29 | O=C(NC1=NCCS1)c1cccs1 | inconclusive: 39.8 µM [inhibitor, single point] | 
30 | COC(=O)[C@@H]1C[C@H]1[C@@H](NS(=O)(=O)c1ccc2ccccc2c1)c1ccccc1 |  | inactive: -16%
31 | COC(=O)CSc1nc(-c2ccccc2)cc(-c2ccco2)c1C#N | inconclusive: 20 µM [inhibitor, partial curve] | 
32 | CCOc1ccc(C)cc1S(=O)(=O)N1CCCCC1 |  | inactive: 1.21%
33 | COc1ccc(-n2c(SCC(=O)Nc3sc4c(c3C#N)CCCC4)nnc2-c2ccc(O)cc2)cc1 | inconclusive: 10 µM [inhibitor, partial curve] | 
34 | CC1CCCCC1NC(=O)C1CCCN1S(=O)(=O)c1cccc2nsnc12 (stereo not drawn) |  | inactive: 5.08%
35 | O=C(O)c1ccccc1C(=O)N(Cc1ccccc1)Cc1ccccc1 |  | inactive: -0.624%
36 | Cc1ccccc1C(=N)c1ccccc1Cc1cccc2ccccc12 |  | inactive: -0.618% [at 11.4 µM]
37 | Cc1ccccc1OCCNC(=S)Nc1ccccc1 | inconclusive: 12.6 µM [inhibitor, partial curve] | 
38 | COc1ccccc1N1C(=O)N(C(C)=O)C2C1Nc1ccccc1N2C (stereo not drawn) | inconclusive: 25.1 µM [inhibitor, single point] | 
39 | Cc1ccc(NC2c3ncccc3C(=O)N2c2ccccc2C)cc1C (stereo not drawn) | inconclusive: 31.6 µM [inhibitor, single point] | 
40 | Cc1ccc(OCCn2c(CCNC(=O)C(C)C)nc3ccccc32)cc1 |  | inactive: 3.47%
41 | CCn1c(COc2ccc(C)cc2)nnc1SCC(=O)C(C)(C)C |  | inactive: -3.76%
42 | O=C(C1=C(O)C(=O)N(CC2CCCO2)C1c1cccnc1)c1ccco1 (stereo not drawn) |  | inactive: -2.43%
43 | CN(Cc1ccccc1)C(=O)[C@H](Cc1ccc2ccccc2c1)NC(=O)[C@@H]1C[C@@H](O)CN1C(=O)c1cn(C)c2ccccc12 | inconclusive: 22.4 µM [inhibitor, partial curve, poor fit] | 
44 | N#CC1=C2SCN(Cc3ccco3)CN2C(=O)CC1c1ccc(Cl)cc1 (stereo not drawn) | inconclusive: 31.6 µM [inhibitor, single point] | 
45 | CCn1c2ccccc2c2cc(N)ccc21 | inconclusive: 15.8 µM [inhibitor, partial curve] | 
46 | c1ccc(N2N=C(c3cccs3)CC2c2ccco2)cc1 (stereo not drawn) | inconclusive: 15.8 µM [inhibitor, partial curve] | 
47 | c1ccc([P+](CC[P+](c2ccccc2)(c2ccccc2)c2ccccc2)(c2ccccc2)c2ccccc2)cc1 |  | inactive: 17.4% [at 11.4 µM]
48 | CC(C)(C)NC(=O)[C@H]1CN(Cc2cccnc2)CCN1C[C@@H](O)C[C@@H](Cc1ccccc1)C(=O)N[C@H]1c2ccccc2C[C@H]1O |  | inactive: -0.346% [at 0.0915 µM]
49 | Cc1ccc(NC(=O)CN2C(=O)S/C(=C\c3cccn3C)C2=O)cc1 | inconclusive: 20 µM [inhibitor, partial curve] | 
50 | CCc1c(C(=O)Nc2ccccc2)c(C)[nH]c(=S)c1C#N | inconclusive: 25.1 µM [inhibitor, single point] | 

Row | SMILES | Potency | activity change, negative = inhibition
51 | CCOc1ccc(Nc2oc(-c3ccco3)nc2C#N)cc1 | inconclusive: 10 µM [inhibitor, partial curve] | 
52 | O=C1C2CCCN2C(c2ccc(F)cc2)N1c1ccc(Cl)cc1 (stereo not drawn) |  | inactive: 9.52%
53 | COCCNC(=O)C1(CC(C)C)C=CCN1C(C)=O (stereo not drawn) |  | inactive: -5.32%
54 | Cc1ccc(C)c(N(CC(=O)NC2CCCC2)C(=O)c2cc3cc4cccc(C)c4nc3s2)c1 |  | inactive: -8.01%
55 | Cc1ccc(CSCCNC(=O)/C=C/c2ccccc2Cl)cc1 |  | inactive: 1.51%
56 | Cc1ccccc1-n1c(=O)cc(NCc2ccc3c(c2)OCO3)[nH]c1=O | inconclusive: 6.31 µM [inhibitor, single point] | 
57 | CN(C)C(=O)c1ccc(-c2ccc3ncnc(NCc4ccccc4)c3c2)cc1 |  | inactive: 9.83%
58 | Cc1cc(=S)[nH]c2ccccc12 | inconclusive: 15.8 µM [inhibitor, partial curve] | 
59 | O=C(Nc1nc(-c2cccs2)cs1)c1ccc(Cl)cc1 |  | inactive: 7.91%
60 | COc1ccc(-c2nc3c(c(=O)[nH]c(=O)n3Cc3ccccc3)n2C)cc1 | inconclusive: 15.8 µM [inhibitor, single point] | 
61 | CCCn1c(C)nc2c(N(C)CCN(C)C)nc(C)nc21 |  | inactive: 13.5%
62 | O=C(O)c1cccc(NC(=S)NC(=O)C(c2ccccc2)c2ccccc2)c1 | inconclusive: 15.8 µM [inhibitor, partial curve] | 
63 | CN1CCc2cccc3c2C1Cc1ccc(O)c(O)c1-3 (stereo not drawn) | inconclusive: 12.6 µM [inhibitor, partial curve] | 
64 | Oc1cccc2ccc(SSc3ccc4cccc(O)c4n3)nc12 | inconclusive: 1 µM [inhibitor, full curve] | 
65 | CCC1CCC2(CC1)NNC(=S)NN2 | inconclusive: 7.94 µM [inhibitor, full curve] | 
66 | CC(=O)C1=C(C)NC(SCC(=O)c2ccc(Cl)cc2)=C(C#N)C1CC(C)C (stereo not drawn) | inconclusive: 20 µM [inhibitor, single point] | 
67 | O=C(NC1CCCC1)c1cc(-c2cccs2)on1 |  | inactive: 11.4%
68 | COc1ccccc1NC(=O)CN1CCC(n2nnc3cc(F)ccc32)CC1 |  | inactive: 10.1%
69 | O=C(NC(=S)Nc1ccc(Cl)cn1)C(c1ccccc1)c1ccccc1 | inconclusive: 20 µM [inhibitor, partial curve, poor fit] | 
70 | Cc1ccc(NC(=O)CSc2nnc(-c3ccc(S(=O)(=O)N4CCCC4)cc3)o2)cc1C | inconclusive: 31.6 µM [inhibitor, single point] | 
71 | O=C(CN1C(=O)C2C3C=CC(C3)C2C1=O)Nc1cccc2c1CCCC2 (stereo not drawn) | inconclusive: 0.316 µM [inhibitor, full curve, poor fit] | 
72 | CCOc1cc(/C=C(/C#N)c2nc3ccccc3[nH]2)ccc1OCc1ccc(C(=O)O)o1 | inconclusive: 15.8 µM [inhibitor, partial curve] | 
73 | Cc1ccc(C(C[N+](=O)[O-])n2nc(C)cc2C)cc1 (stereo not drawn) | inconclusive: 6.31 µM [inhibitor, partial curve] | 
